Laboratory results as given in article PMC12820563, “FoxP3 forms a head-to-head dimer in vivo and stabilizes its multimerization on adjacent microsatellites”.
The list shows a part of the results.

The sequences below were run against T1, MBP-FoxP1dN (Mus musculus, UniProt P58462 326-579) (assay: PD-seq (MBP pull-down with sequencing); 20 mM Tris-HCl pH 7.5, 100 mM NaCl, 1.5 mM MgCl2, 0.4 uM protein, 0.1 uM dsDNA library, 30 min, room temperature, amylose pull-down; high values mean tight binding). Conditions: protein: recombinant; tags: His6-MBP; chain copies: 2; dsDNA, one strand shown.
T1 sequence: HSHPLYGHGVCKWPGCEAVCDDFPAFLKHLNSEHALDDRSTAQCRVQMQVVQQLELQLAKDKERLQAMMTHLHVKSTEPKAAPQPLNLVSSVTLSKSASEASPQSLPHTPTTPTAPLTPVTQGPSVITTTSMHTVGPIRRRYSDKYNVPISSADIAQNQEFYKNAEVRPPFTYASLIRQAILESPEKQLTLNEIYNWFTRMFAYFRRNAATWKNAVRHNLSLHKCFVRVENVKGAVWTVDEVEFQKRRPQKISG
How it was run: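 A fragment of mouse FoxP3 or FoxP1 without its N-terminus, carrying a His6-MBP tag and produced in E. coli, was combined at 0.4 µM with a 0.1 µM degenerate double-stranded DNA library filled in with Klenow. The mixture sat for 30 min at room temperature in Tris pH 7.5 buffer containing NaCl and MgCl2. Protein–DNA complexes were captured on amylose resin, washed three times, and the DNA was freed with proteinase K, barcoded by PCR and sequenced on Illumina. Binding is expressed as reads-per-million enrichment of pull-down over input, with replicates pooled.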

Row | Sequence | binding signal
1 | GATGATTGTTCTCCCAGCTGATGAATTCTGTATCTCGAGTAAACAAATTTTCCTAATCTTTCTGTTCAAGCGCCATCTAC | 1.03 RPM ratio (pull-down/input)
2 | GATGATTGTTCTCCCAGCTGATGAATTGAGTGACTCGAGTAAACAAATTTTCCTAATCTTTCTGTTCAAGCGCCATCTAC | 0.833 RPM ratio (pull-down/input)
3 | GATGATTGTTCTCCCAGCTGATGAATTGCGCTGCTCGAGTAAACAAATTTTCCTAATCTTTCTGTTCAAGCGCCATCTAC | 1.03 RPM ratio (pull-down/input)
4 | GATGATTGTTCTCCCAGCTGATGAATTTTGGAAATCGAGTAAACAAATTTTCCTAATCTTTCTGTTCAAGCGCCATCTAC | 0.986 RPM ratio (pull-down/input)
5 | GATGATTGTTCTCCCAGCTGATGAATTAGACAAATCGAGTAAACAAATTTTCCTAATCTTTCTGTTCAAGCGCCATCTAC | 1.29 RPM ratio (pull-down/input)
6 | GATGATTGTTCTCCCAGCTGATGAATTCTCTAGCTCGAGTAAACAAATTTTCCTAATCTTTCTGTTCAAGCGCCATCTAC | 0.75 RPM ratio (pull-down/input)
7 | GATGATTGTTCTCCCAGCTGATGAATTGGCAACGTCGAGTAAACAAATTTTCCTAATCTTTCTGTTCAAGCGCCATCTAC | 0.92 RPM ratio (pull-down/input)
8 | GATGATTGTTCTCCCAGCTGATGAATTTGCGCTTTCGAGTAAACAAATTTTCCTAATCTTTCTGTTCAAGCGCCATCTAC | 1.05 RPM ratio (pull-down/input)
9 | GATGATTGTTCTCCCAGCTGATGAATTGGCTTGCTCGAGTAAACAAATTTTCCTAATCTTTCTGTTCAAGCGCCATCTAC | 0.868 RPM ratio (pull-down/input)
10 | GATGATTGTTCTCCCAGCTGATGAATTAAGGAAATCGAGTAAACAAATTTTCCTAATCTTTCTGTTCAAGCGCCATCTAC | 1.04 RPM ratio (pull-down/input)
11 | GATGATTGTTCTCCCAGCTGATGAATTAACACGCTCGAGTAAACAAATTTTCCTAATCTTTCTGTTCAAGCGCCATCTAC | 1.02 RPM ratio (pull-down/input)
12 | GATGATTGTTCTCCCAGCTGATGAATTTAGGCTGTCGAGTAAACAAATTTTCCTAATCTTTCTGTTCAAGCGCCATCTAC | 0.946 RPM ratio (pull-down/input)
13 | GATGATTGTTCTCCCAGCTGATGAATTTCCTCCATCGAGTAAACAAATTTTCCTAATCTTTCTGTTCAAGCGCCATCTAC | 0.87 RPM ratio (pull-down/input)
14 | GATGATTGTTCTCCCAGCTGATGAATTCCTTCGATCGAGTAAACAAATTTTCCTAATCTTTCTGTTCAAGCGCCATCTAC | 0.836 RPM ratio (pull-down/input)
15 | GATGATTGTTCTCCCAGCTGATGAATTGAATCCCTCGAGTAAACAAATTTTCCTAATCTTTCTGTTCAAGCGCCATCTAC | 0.801 RPM ratio (pull-down/input)
16 | GATGATTGTTCTCCCAGCTGATGAATTCCATGATTCGAGTAAACAAATTTTCCTAATCTTTCTGTTCAAGCGCCATCTAC | 0.874 RPM ratio (pull-down/input)
17 | GATGATTGTTCTCCCAGCTGATGAATTGGCCTAATCGAGTAAACAAATTTTCCTAATCTTTCTGTTCAAGCGCCATCTAC | 0.974 RPM ratio (pull-down/input)
18 | GATGATTGTTCTCCCAGCTGATGAATTCAAATCCTCGAGTAAACAAATTTTCCTAATCTTTCTGTTCAAGCGCCATCTAC | 0.895 RPM ratio (pull-down/input)
